Laboratory results taken from a compilation of properties of binary mixtures (doi:10.1021/jp5065243).
Some of these densities may be calculated back from excess volumes.

Assay: xn = mol fraction of the nth substance listed
Details: 100 kPa

CCCC[N+](C)(C)C.O=S(=O)([N-]S(=O)(=O)C(F)(F)F)C(F)(F)F + CC(O)C(C)O
x2 = 0
Details | mass density [kg/m3]
323.15 K | 1371
328.15 K | 1366
333.15 K | 1362
343.15 K | 1353
348.15 K | 1349

CCCC[N+](C)(C)C.O=S(=O)([N-]S(=O)(=O)C(F)(F)F)C(F)(F)F + CC(O)CO
mass density [kg/m3]
Details | x2 = 0 | x2 = 0.132 | x2 = 0.1909 | x2 = 0.3054 | x2 = 0.5274 | x2 = 0.7262 | x2 = 0.8149 | x2 = 0.8843
323.15 K | 1371 | 1356 | 1347.7 | – | – | 1220.4 | 1176.3 | 1131
328.15 K | 1366 | – | – | – | 1281.6 | 1216 | – | 1126.8
333.15 K | 1362 | 1346.9 | 1338.9 | – | 1277.2 | 1211.5 | 1167.7 | –
338.15 K | 1358 | 1342.5 | 1334.5 | 1317.5 | – | 1207.1 | 1163.4 | 1118.2
343.15 K | 1353 | 1338 | – | 1313.1 | 1268.2 | 1202.7 | 1159 | 1114
348.15 K | 1349 | 1333.7 | 1325.8 | 1308.7 | – | – | 1154.7 | –
353.15 K | 1344.7 | 1329.2 | 1321.5 | 1304.1 | 1259.3 | 1193.8 | 1150.4 | 1105.3

C[N+](C)(C)CCO.O=S(=O)([N-]S(=O)(=O)C(F)(F)F)C(F)(F)F + CC(O)CO
mass density [kg/m3]
Details | 313.15 K | 318.15 K | 323.15 K | 328.15 K | 333.15 K | 338.15 K | 343.15 K | 348.15 K | 353.15 K
x2 = 0 | 1514 | 1510 | 1505 | – | – | – | 1487 | – | –
x2 = 0.2189 | – | 1471 | 1467 | – | 1457 | 1453 | 1448 | 1444 | –
x2 = 0.3834 | – | 1432 | – | 1422 | – | 1413 | 1409 | 1404 | 1400
x2 = 0.4786 | – | – | 1398 | 1394 | 1389 | 1384 | 1380 | 1375 | 1371
x2 = 0.5867 | 1367 | 1362 | 1357 | 1353 | 1348.4 | 1343.9 | 1339.3 | 1334.8 | –
x2 = 0.7668 | – | 1265.2 | – | 1256.4 | – | 1247.6 | 1243.1 | 1238.7 | 1234.3
x2 = 0.8744 | – | 1177.2 | 1173 | 1168.7 | – | – | 1155.9 | 1151.6 | 1147.2

CCCC[N+](C)(C)C.O=S(=O)([N-]S(=O)(=O)C(F)(F)F)C(F)(F)F + CCC(O)CO
mass density [kg/m3]
Details | 323.15 K | 328.15 K | 333.15 K | 338.15 K | 343.15 K | 348.15 K | 353.15 K
x2 = 0 | 1371 | 1366 | – | 1358 | 1353 | 1349 | 1344.7
x2 = 0.2291 | 1335.3 | 1330.8 | – | 1322 | 1317.7 | – | 1309
x2 = 0.3543 | 1310.3 | 1305.8 | – | 1297 | 1292.6 | 1288.2 | 1283.8
x2 = 0.5116 | 1269.7 | 1265.2 | 1260.8 | 1256.4 | – | – | 1243.1
x2 = 0.6289 | 1229.8 | 1225.3 | 1221 | 1216.7 | 1212.4 | 1208 | 1203.6
x2 = 0.8622 | 1108.2 | 1103.8 | 1099.7 | 1095.5 | 1091.3 | – | –
x2 = 0.9031 | – | – | 1068.7 | 1064.6 | – | 1056.1 | –

CC(O)C(C)O (stereo not given) + CCCC[N+](C)(C)C.O=S(=O)([N-]S(=O)(=O)C(F)(F)F)C(F)(F)F
mass density [kg/m3]
Details | 323.15 K | 328.15 K | 333.15 K | 338.15 K | 343.15 K | 348.15 K | 353.15 K
x1 = 0.0879 | 1358 | 1354 | 1349.3 | 1344.9 | 1340.5 | 1336.2 | 1331.9
x1 = 0.3137 | 1317.7 | 1313.3 | 1308.8 | 1304.4 | – | 1295.6 | 1291.1
x1 = 0.4515 | – | – | 1275.9 | 1271.5 | 1267 | 1262.6 | 1258.2
x1 = 0.557 | 1253.6 | 1249.1 | 1244.7 | 1240.2 | – | 1231.2 | 1226.8
x1 = 0.6216 | 1230.9 | 1226.4 | – | 1217.5 | 1213.2 | – | 1204
x1 = 0.8142 | 1137.6 | 1133.2 | – | 1124.3 | – | 1115.2 | 1110.7
x1 = 1 | 976.1 | 971.9 | 967.5 | – | 958.8 | 954.4 | 950

CC(O)CO (stereo not given) + CCCC[N+](C)(C)C.O=S(=O)([N-]S(=O)(=O)C(F)(F)F)C(F)(F)F
x1 = 1
Details | mass density [kg/m3]
323.15 K | 1013.7
338.15 K | 1001.9
343.15 K | 997.8
348.15 K | 993.8
353.15 K | 989.7

CCC(O)CO (stereo not given) + CCCC[N+](C)(C)C.O=S(=O)([N-]S(=O)(=O)C(F)(F)F)C(F)(F)F
x1 = 1
Details | mass density [kg/m3]
323.15 K | 979.1
328.15 K | 975.1
333.15 K | 971.2
338.15 K | 967.2
343.15 K | 963.1
348.15 K | 959

CC(O)CO (stereo not given) + C[N+](C)(C)CCO.O=S(=O)([N-]S(=O)(=O)C(F)(F)F)C(F)(F)F
x1 = 1
Details | mass density [kg/m3]
318.15 K | 1017.6
323.15 K | 1013.7
328.15 K | 1009.8
338.15 K | 1001.9
343.15 K | 997.8
348.15 K | 993.8
353.15 K | 989.7

OCCCCCO + C[N+](C)(C)CCO.O=S(=O)([N-]S(=O)(=O)C(F)(F)F)C(F)(F)F
x1 = 1
Details | mass density [kg/m3]
313.15 K | 977.3
318.15 K | 974.4
323.15 K | 971.5
333.15 K | 965.6
353.15 K | 953.5

OCCCO + C[N+](C)(C)CCO.O=S(=O)([N-]S(=O)(=O)C(F)(F)F)C(F)(F)F
x1 = 1
Details | mass density [kg/m3]
313.15 K | 1040.8
318.15 K | 1037.6
323.15 K | 1034.4
328.15 K | 1031.2
338.15 K | 1024.6
343.15 K | 1021.3
348.15 K | 1018
353.15 K | 1014.6

C[N+](C)(C)CCO.O=S(=O)([N-]S(=O)(=O)C(F)(F)F)C(F)(F)F + OCCCCCO
mass density [kg/m3]
Details | 313.15 K | 318.15 K | 323.15 K | 328.15 K | 333.15 K | 338.15 K | 343.15 K | 348.15 K | 353.15 K
x2 = 0 | 1514 | 1510 | 1505 | 1501 | 1496 | 1492 | – | 1482 | –
x2 = 0.1351 | 1480 | 1475 | 1471 | – | 1462 | 1457 | 1453 | 1449 | 1444
x2 = 0.2149 | 1457 | 1452 | – | 1444 | 1439 | 1435 | 1430 | 1426 | 1421
x2 = 0.4145 | 1388 | 1384 | – | 1375 | 1371 | – | 1362 | 1358 | –
x2 = 0.5087 | 1347.9 | 1343.7 | 1339.4 | 1335.2 | 1331 | 1326.8 | – | 1318.3 | 1314.2
x2 = 0.6847 | 1254.8 | 1250.9 | 1246.9 | 1243 | 1239 | – | 1231.1 | 1227.1 | –
x2 = 0.7858 | 1187.1 | – | – | 1176 | 1172.2 | 1168.5 | 1164.8 | 1161 | –
x2 = 0.9071 | 1081.9 | 1078.6 | – | 1072 | 1068.6 | 1065.2 | 1061.9 | 1058.5 | 1055.1

C[N+](C)(C)CCO.O=S(=O)([N-]S(=O)(=O)C(F)(F)F)C(F)(F)F + OCCCO
mass density [kg/m3]
Details | 313.15 K | 318.15 K | 323.15 K | 328.15 K | 333.15 K | 338.15 K | 343.15 K | 348.15 K | 353.15 K
x2 = 0 | 1514 | 1510 | 1505 | – | 1496 | 1492 | – | 1482 | –
x2 = 0.1272 | 1494 | 1490 | – | 1481 | 1476 | 1472 | – | 1463 | 1458
x2 = 0.2297 | 1475 | 1470 | 1466 | 1461 | 1457 | 1452 | 1448 | 1443 | 1439
x2 = 0.4106 | – | 1427 | 1423 | 1418 | – | 1410 | 1405 | 1401 | 1396
x2 = 0.5712 | – | – | 1370 | 1366 | 1361 | 1357 | 1353 | 1348.2 | 1343.9
x2 = 0.6946 | 1323.2 | 1319 | 1314.7 | 1310.4 | 1306.1 | 1301.9 | – | – | 1289.1
x2 = 0.8367 | 1229.1 | 1225.2 | 1221.2 | 1217.3 | 1213.3 | 1209.3 | – | 1201.3 | 1197.3
x2 = 0.9474 | – | 1113 | 1109.5 | 1106 | 1102.5 | – | 1095.3 | 1091.7 | 1088
